Assay results as given in publication PMC6322289 (2019).

Biological target: β-1,3-glucanase (Hevea brasiliensis (endogenous in latex …, UniProt P52407 37-356))
Assay: SPR

Sequence of UniProt P52407 (P52407 37-356): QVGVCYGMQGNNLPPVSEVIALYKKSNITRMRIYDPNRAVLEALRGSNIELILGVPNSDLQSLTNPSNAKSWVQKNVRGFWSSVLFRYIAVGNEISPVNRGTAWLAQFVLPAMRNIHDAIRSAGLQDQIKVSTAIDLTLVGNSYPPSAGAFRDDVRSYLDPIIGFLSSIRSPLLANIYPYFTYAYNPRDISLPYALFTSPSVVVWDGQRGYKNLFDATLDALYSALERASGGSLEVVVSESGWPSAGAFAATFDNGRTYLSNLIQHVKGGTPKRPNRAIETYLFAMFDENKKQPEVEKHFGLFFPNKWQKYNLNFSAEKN

- koff: 0.0147 s⁻¹
B1: chitinase (enzyme)
chain: GGIAIYWGQNGNEGTLTQTCSTRKYSYVNIAFLNKFGNGQTPQINLAGHCNPAAGGCTIVSNGIRSCQIQGIKVMLSLGGGIGSYTLASQADAKNVADYLWNNFLGGKSSSRPLGDAVLDGIDFDIEHGSTLYWDDLARYLSAYSKQGKKVYLTAAPQCPFPDRYLGTALNTGLFDYVWVQFYNNPPCQYSSGNINNIINSWNRWTTSINAGKIFLGLPAAPEAAGSGYVPPDVLISRILPEIKKSPKYGGVMLWSKFYDDKNGYSSSILDSV
modifications: native protein purified from lutoid B-serum; the paper does not name the family member. Hevamine-A is assumed as the major lutoid chitinase (about 29 kDa, seen as a 26 kDa band); mature limits are from the CHAIN feature; disulfides as in the native protein
